Source: US20230416360A1 (SIMCERE ZAIMING PHARMACEUTICAL, published 2023)

Target: T1, human CD22 domain1-4-His (human, UniProt P20273 20-425)
T1 construct: Distal end of membrane fragment; also called hCD22 domain1-4-His; not shown: His tag
T1 sequence: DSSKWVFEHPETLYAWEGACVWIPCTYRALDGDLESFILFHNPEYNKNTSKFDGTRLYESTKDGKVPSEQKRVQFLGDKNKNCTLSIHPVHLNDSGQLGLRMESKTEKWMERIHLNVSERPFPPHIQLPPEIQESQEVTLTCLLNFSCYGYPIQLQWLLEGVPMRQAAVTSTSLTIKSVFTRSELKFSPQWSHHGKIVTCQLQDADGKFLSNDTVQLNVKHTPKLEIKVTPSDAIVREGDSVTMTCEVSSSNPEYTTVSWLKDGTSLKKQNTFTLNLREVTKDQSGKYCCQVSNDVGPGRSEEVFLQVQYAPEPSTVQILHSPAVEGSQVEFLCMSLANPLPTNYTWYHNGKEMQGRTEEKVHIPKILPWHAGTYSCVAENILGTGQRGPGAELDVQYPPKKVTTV
Assay: ELISA on coated human CD22 domain1-4-His

B1: HA22 scFv-hFc (Fc fusion)
chain: EVQLVESGGGLVKPGGSLKLSCAASGFAFSIYDMSWVRQTPEKCLEWVAYISSGGGTTYYPDTVKGRFTISRDNAKNTLYLQMSSLKSEDTAMYYCARHSGYGTHWGVLFAYWGQGTLVTVSAGGGGSGGGGSGGGGSDIQMTQTTSSLSASLGDRVTISCRASQDISNYLNWYQQKPDGTVKLLIYYTSILHSGVPSRFSGSGSGTDYSLTISNLEQEDFATYFCQQGNTLPWTFGCGTKLEIK[human IgG1 Fc with changes cut from this listing]
EC50 (read off the curve): ~0.5 nM
